# Source: article PMC4336329 (PLoS ONE, 2015)
# Screen size: about 310,000 compounds; about 14,000 (4.5%) showed an effect of 50% or more. Effects have a minus sign here. This is one part of the list.
# Target: human ether-à-go-go-related gene (hERG) potassium channel (human, UniProt Q12809)
# Assay: primary screen, population patch clamp on CHO cells stably expressing hERG
# 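Also: peak tail current of the secondary pulse compared with the same well before compound.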
# Chain of human ether-à-go-go-related gene (hERG) potassium channel (Q12809 whole entry, looked up): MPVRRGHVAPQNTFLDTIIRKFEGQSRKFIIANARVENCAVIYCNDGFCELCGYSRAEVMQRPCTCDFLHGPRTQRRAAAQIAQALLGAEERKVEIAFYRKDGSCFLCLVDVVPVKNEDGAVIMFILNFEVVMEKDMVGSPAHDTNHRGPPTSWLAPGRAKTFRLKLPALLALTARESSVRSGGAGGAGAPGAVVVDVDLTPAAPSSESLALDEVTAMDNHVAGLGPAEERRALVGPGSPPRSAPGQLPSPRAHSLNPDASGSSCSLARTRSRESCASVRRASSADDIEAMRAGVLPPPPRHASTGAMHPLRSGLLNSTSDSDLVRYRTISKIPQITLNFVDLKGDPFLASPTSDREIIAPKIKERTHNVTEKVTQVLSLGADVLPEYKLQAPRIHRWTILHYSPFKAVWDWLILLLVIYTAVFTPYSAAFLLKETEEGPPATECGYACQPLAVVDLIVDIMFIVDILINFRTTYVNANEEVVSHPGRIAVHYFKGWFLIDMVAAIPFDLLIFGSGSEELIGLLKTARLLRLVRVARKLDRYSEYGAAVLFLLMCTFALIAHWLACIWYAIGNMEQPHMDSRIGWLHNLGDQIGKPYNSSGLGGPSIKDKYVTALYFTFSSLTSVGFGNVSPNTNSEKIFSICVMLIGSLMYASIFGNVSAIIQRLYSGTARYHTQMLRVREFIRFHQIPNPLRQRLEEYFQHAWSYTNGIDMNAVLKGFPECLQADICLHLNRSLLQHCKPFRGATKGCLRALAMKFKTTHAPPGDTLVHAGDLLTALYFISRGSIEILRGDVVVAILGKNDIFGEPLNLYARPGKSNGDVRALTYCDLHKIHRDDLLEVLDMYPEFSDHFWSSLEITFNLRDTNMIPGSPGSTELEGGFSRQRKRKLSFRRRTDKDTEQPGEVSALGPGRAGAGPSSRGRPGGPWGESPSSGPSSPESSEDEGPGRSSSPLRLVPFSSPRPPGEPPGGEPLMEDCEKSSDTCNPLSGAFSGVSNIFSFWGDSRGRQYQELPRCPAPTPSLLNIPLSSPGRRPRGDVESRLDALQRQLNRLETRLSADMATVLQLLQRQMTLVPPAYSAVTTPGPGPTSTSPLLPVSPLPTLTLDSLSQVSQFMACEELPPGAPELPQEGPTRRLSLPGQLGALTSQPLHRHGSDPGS
row,Structure (SMILES),"hERG current change (%, negative = inhibition) at 10uM [%]"
1,CC(Oc1ccc(F)cc1)C(=O)NN (stereo not drawn),18.6
2,Cc1ccc2nc(Cl)nc(-c3ccccc3)c2c1,0.821
3,N/C(Cc1ccc(Cl)cc1Cl)=N\OC(=O)c1cccs1,1.97
4,O=C(CCN1CCN(c2ccc(F)cc2)CC1)Nc1ccc(F)cc1,-56.8
5,CCCCNCC1CCCO1 (stereo not drawn),17.4
6,O=C(O)c1cccnc1SC1CC(=O)N(c2cccc3ccccc23)C1=O (stereo not drawn),17.4
7,CC(C)[C@H](NC(=O)[C@H](Cc1ccccc1)n1c(=O)[nH]c2ccccc2c1=O)C(=O)N[C@@H](Cc1ccccc1)C(=O)O,12.5
8,Cc1cc(NC(=O)COC(=O)c2c(C)nn(-c3ccccc3)c2C)no1,13.7
9,O=S(=O)(c1ccc(F)c(F)c1)N1CCC2(CC1)OCCO2,7.51
10,COc1ccccc1N1CCN(C(=O)c2ccc(NC(C)=O)cc2)CC1,2.46
11,O=C(COC(=O)CCNS(=O)(=O)c1cccs1)Nc1ccccc1,-5.63
12,Cc1cc(NC(=O)CCCn2nc(C)c([N+](=O)[O-])c2C)no1,14.4
13,CCN(CC)CCNC(=O)c1ccc(NC(=O)c2cn(-c3ccccc3)nc2-c2cccs2)cc1,-32.7
14,Cc1nn(C(C)(C)C)c(OC(=O)c2ccc(Br)o2)c1Sc1ccccc1,1.31
15,COc1ccc(OC)c2[nH]c(=O)c(CCNC(=O)COc3ccccc3)cc12,-17.5
16,O=C(Nc1ccccc1N1CCOCC1)c1ccc(N2CCOCC2)c([N+](=O)[O-])c1,-20.7
17,O=C(NC1CCN(Cc2ccccc2)CC1)C1CCN(S(=O)(=O)c2cccc([N+](=O)[O-])c2)CC1,-8.03
18,Cc1c(C)c2ccc(O[C@@H]3O[C@H](CO)[C@H](O)[C@H](O)[C@H]3O)cc2oc1=O,15.8
19,CC(C)(C)C(=O)Cn1ncc(N2CCOCC2)c(Cl)c1=O,-71.9
20,O=C(COc1ncnc2ccccc12)N1CCN(C(=O)c2ccco2)CC1,-2.22
21,CCN(CC)c1ccc(C(=O)OCC(=O)NC(C)(C)C)cc1,-0.0611

row,Structure (SMILES),"hERG current change (%, negative = inhibition) at 10uM [%]"
1,COc1ccc(OCC(=O)N2CCCC(CO)(CCOc3ccccc3)C2)cc1 (stereo not drawn),-46.8
2,CCc1ccc(/C=C2\SC(=S)N(CCC(=O)N3CCN(C)CC3)C2=O)cc1,13.8
3,COc1ccccc1Nc1nc(NCC2CCCO2)c2ccccc2n1.Cl (stereo not drawn),-59.6
4,Cc1cc(Cl)ccc1C(=O)C1CCCN(C(=O)CCN2CCCO2)C1 (stereo not drawn),-1.54
5,CCCNc1nc2c(c(=O)[nH]c(=O)n2C)n1CCOc1ccccc1,-39.8
6,CCCCN(CCCC)NC(=O)c1ccccc1,5.03
7,COc1ccccc1OC(=O)c1ccc(C)c(S(=O)(=O)N2CCOCC2)c1,-24
8,O=C(O)c1ccc(N2C(=O)CC(N3CCN(c4cccc(Cl)c4)CC3)C2=O)cc1 (stereo not drawn),-0.425
9,Cc1nn(CC(=O)N2N=C(C(F)F)CC2(O)C(F)F)c(C)c1[N+](=O)[O-] (stereo not drawn),4.07
10,Cc1ccccc1-n1ncc2c1CC(C)(C)CC2NC(=O)C1=CC(=O)CC(C)(C)O1 (stereo not drawn),-4.61
11,CCOC(=O)N1CCN(C2CCCN(C(=O)c3ccccc3SC)C2)CC1 (stereo not drawn),12.6
12,CSC(=O)CC(=O)NC(=O)c1ccccc1,2.41
13,CCOC(=O)c1nc(Nc2ccc(C)cc2)c2ccccc2n1,-38.3
14,Cc1ccc(S(=O)(=O)N2CCN(c3ncnc4scc(-c5ccc(F)cc5)c34)CC2)cc1,14.6
15,CCn1c(C(=O)N2CCCC(C(=O)O)C2)cc2sccc21 (stereo not drawn),14.4
16,COC(=O)Cc1c(C)nc2nc(-c3ccco3)[nH]n2c1=O,-3.26
17,COc1ccc(CCN(C)C(=O)c2ccc(C)c(S(=O)(=O)N3CCCCC3)c2)cc1OC,-20.9
18,CCC/C=N/NC(=O)c1ccccc1O,20.8
19,Nc1cccc(O)c1,17.8
20,COc1ccc(N=Nc2cnc(C)nc2-c2ccccc2)cc1,10.6
21,COC(=O)c1c(NC(=O)COC(=O)[C@@H](NS(=O)(=O)c2cccc(Cl)c2)C(C)C)sc2c1CCC2,3.75
